Test results from the RNAGym collection of RNA variant scans (doi:10.7554/elife.90254).
Read counts are not given, so values of variants with three or more changes are uncertain.

B1: OR4K15 (parent)
chain: GUUAACGGUCAUAGGCCAUGGAAACUAGGAGCACCAUUUCGCUGCCAGUGAAGAAAUGAACAAAGAAAAUCUGGGCCAGGCAGGCAUCAAAAGAAAUAGUCUUGCGCUCAACCAGAAAGUCUGUAAUCAUUUUAAGGGUA

Variants of: B1
Test: self-cleavage, relative activity (ratio to wild type); higher = more cleavage; in vitro, sequencing; the parent is a self-cleaving ribozyme

With GUUAACGGUCAUAGGCCAUGGAAACUAGGAGCACCAUUUCGCUGCCAGUGAAGAAAUGAACAAAGAGAAUCUGGGCCAGGCAGGCAUCAGAAGAAAUAGUCUUGCGCUCGACCAGAAAGUCUGUAAUCAUUUUAAGGGUA [A67G A90G A110G] as the variant, how does the self-cleavage read?
Its self-cleavage is 0.04.

For GUUAACGGUCAUAGGCCAUGGAAACUAGGAGCACCAUUUCGCUGCCAGUGAAGAAAUGAACAAAGAGAAUCUGGGCCAGGCAGGCAUCAAGAGAAAUAGUCUUGCGCUCAACCAGGAAGUCUGUAAUCAUUCUAAGGGUA [A67G A91G A116G U132C], which self-cleavage is on record?
The self-cleavage was 0.37.

Which self-cleavage does the source give for GUUAACGGUCAUAGGCCAUGGAAACUAGGAGCACCAUUUCGCUGCCAGUGAAGAAAUGAACAAAGAGAAUCUGGGCCUGGCAGGCAUCAAAAGAAAUAGUCUUGCGCUCAACCAGAAAGUCUGUAAUCAUUUUAAGGGCA [A67G A78U U139C] here?
Its self-cleavage is 0.49.

Which self-cleavage does the source give for GUUAACGGUCAUAGGCCAUGGAAACUAGGAGCACCAUUUCGCUGCCAGUGAAGAAAUGAACAAAGUAAAUCUGGGCCAGGCAGGCAUCAAAAGAAAUAGUCUUGCGCUCAACCAGAAAGUCCGUAAUCAUUCUAAGGGUA [A66U U122C U132C] here?
Its self-cleavage is 0.28.

For GUUAACGGUCAUAGGCCAUGGAAACUAGGAGCACCAUUUCGCUGCCAGUGAAGAAAUGAACAAAGAGAAUCUGGGCCAGGCUGGCAACAAAAGAAAUUGUCUUGCGCUCAACCAGAAAGUCUGUAAUCAUUUUAAGGGUA [A67G A82U U87A A98U], which self-cleavage is on record?
The self-cleavage was 0.45.

For GUUAACGGUCAUAGGCCAUGGAAACUAGGAGCACCAUUUCGCUGCCAGUGAAGAAAUGAACAAAGACAAUCUGGGCCAGGCAGGCAUCGAAAGAUAUAGUCUUGCGCUCAACCAGAAAGUCUGUAAUCACUUUAAGGGUA [A67C A89G A95U U130C], which self-cleavage is on record?
Its self-cleavage is 1.2.

Which self-cleavage does the source give for GUUAACGGUCAUAGGCCAUGGAAACUAGGAGCACCAUUUCGCUGCCAGUGAAGAAAUGAACAAAGUAAACCUGGGCCAGGCAGGCAUCAAAAGAAAUAGUCCUGCGCUCAACCAGAAAGUCUGUAAUCAUUUUAAGGGUA [A66U U70C U102C] here?
The self-cleavage was 0.84.

Which self-cleavage does the source give for GUUAACGGUCAUAGGCCAUGGAAACUAGGAGCACCAUUUCGCUGCCAGUGAAGAAAUGAACAAAGAGAAUCUGGGCCAGGCAGGCGUCAAAAGAAAUAGUCUUGCGCCCAACCAGAAAGUCUGUAAUCAUUUUAAGGGUA [A67G A86G U108C] here?
The self-cleavage was 0.02.

For GUUAACGGUCAUAGGCCAUGGAAACUAGGAGCACCAUUUCGCUGCCAGUGAAGAAAUGAACAAAGAGAAUCUGGGCCAGGCAGGCAUCUAAAGAAAUAGUCUCGCGCUCAACCAGAAAGUCUGUAAUCAUUUUAAGGGUA [A67G A89U U103C], which self-cleavage is on record?
Its self-cleavage is 0.63.

For GUUAACGGUCAUAGGCCAUGGAAACUAGGAGCACCAUUUCGCUGCCAGUGAAGAAAUGAACAAAGAGAAUCUGGGCCUGGCAGGCAUCAAAAGAAAUAGUCUUGCGCUCAACCAGACAGUCUGUAAUCAUUUUAAGGGCA [A67G A78U A117C U139C], which self-cleavage is on record?
Its self-cleavage is 0.15.

Which self-cleavage does the source give for GUUAACGGUCAUAGGCCAUGGAAACUAGGAGCACCAUUUCGCUGCCAGUGAAGAAAUGAACAAAGAGAAUCUGGGCCAGGCAGGCAUCAUAAGAAAUAGUCCAGCGCUCAACCAGAAAGUCUGUAGUCAUUUUAAGGGAA [A67G A90U U102C U103A A126G U139A] here?
Its self-cleavage is 0.21.

With GUUAACGGUCAUAGGCCAUGGAAACUAGGAGCACCAUUUCGCUGCCAGUGAAGAAAUGAACAAAGUAAAUCUGGGCCAGGCAGGCAUCAAAAGAAAUAGUCCUGCGCUCAACCAGAAAGUCAGUAAUCAUUUUAAGGGUA [A66U U102C U122A] as the variant, how does the self-cleavage read?
Its self-cleavage is 1.87.

For GUUAACGGUCAUAGGCCAUGGAAACUAGGAGCACCAUUUCGCUGCCAGUGAAGAAAUGAACAAAGUAAAACUGGGCCAGGCAGGCAUCAAAAGAAAUAGUCUUGCGCUCAACCUGAAAGUCUGUAAUCAUUUUAAGGGUA [A66U U70A A114U], which self-cleavage is on record?
The self-cleavage was 0.04.

Which self-cleavage does the source give for GUUAACGGUCAUAGGCCAUGGAAACUAGGAGCACCAUUUCGCUGCCAGUGAAGAAAUGAACAAAGAGAGUCUGGGCCAGGCAGGCAUCAAAAGAAAUAGUCUUGCGCUCAACCAGGAAGUCUGUAGUCAUUUUAAGGGUA [A67G A69G A116G A126G] here?
Its self-cleavage is 0.55.

With GUUAACGGUCAUAGGCCAUGGAAACUAGGAGCACCAUUUCGCUGCCAGUGAAGAAAUGAACAAAGAGAAUCUGGGCCCGGCAGGCAUCAAAAGAAAUAGUCUUGCGCUCAACCAGGAAGUCUGUAAUCAUUUUAAGGGUA [A67G A78C A116G] as the variant, how does the self-cleavage read?
Its self-cleavage is 0.07.

With GUUAACGGUCAUAGGCCAUGGAAACUAGGAGCACCAUUUCGCUGCCAGUGAAGAAAUGAACAAAGAGGAUCUGGGCCAGGCAGGCAUCAAAAGAAAUAGUCUUGUGCUCAACCAGAAAGCCUGUAAUCAAUUUAAGGGUA [A67G A68G C105U U120C U130A] as the variant, how does the self-cleavage read?
Its self-cleavage is 0.04.

With GUUAACGGUCAUAGGCCAUGGAAACUAGGAGCACCAUUUCGCUGCCAGUGAAGAAAUGAACAAAGAGAAUCUGGGCCUGGCAGGCAUCAAAAGAAAUAGUCUUGCGCUCAACCAGAAAGUCUGUAAUCGUCUUAAGGGUA [A67G A78U A129G U131C] as the variant, how does the self-cleavage read?
The self-cleavage was 0.05.

With GUUAACGGUCAUAGGCCAUGGAAACUAGGAGCACCAUUUCGCUGCCAGUGAAGAAAUGAACAAAGAGAAUCUGGGCCAGGCGGGCGUCAAAAGAAAUAGUCUUGCGCUCAACCAGAAAGUCUGUAAUCAUUCUAAGGGUA [A67G A82G A86G U132C] as the variant, how does the self-cleavage read?
Its self-cleavage is 0.05.

With GUUAACGGUCAUAGGCCAUGGAAACUAGGAGCACCAUUUCGCUGCCAGUGAAGAAAUGAACAAAGAGAAUCUGGGCCAGGCGUGCAUCAAAAGAAAUAGUCUUGCGCACAACCAGAAAGUCUGUAGUCAUUUUAAGGGUA [A67G A82G G83U U108A A126G] as the variant, how does the self-cleavage read?
The self-cleavage was 0.02.

With GUUAACGGUCAUAGGCCAUGGAAACUAGGAGCACCAUUUCGCUGCCAGUGAAGAAAUGAACAAAGAGAAUCUGGGCCAGGCGGGCACCAAAAGAAAUAGUCUUGCGCUCAACCAGAAAGUCUGUAAUCAUUUUAAGGGUA [A67G A82G U87C] as the variant, how does the self-cleavage read?
Its self-cleavage is 0.22.

Which self-cleavage does the source give for GUUAACGGUCAUAGGCCAUGGAAACUAGGAGCACCAUUUCGCUGCCAGUGAAGAAAUGAACAAAGAGAAUCUGGGCCUGGCAGGCAUCAAAAGAAAUAGUCUUGCGCUCAACCGGAAAGUCUGUAAUCAUUUUAAGGGUA [A67G A78U A114G] here?
The self-cleavage was 0.07.
